# PubChem BioAssay AID686979 (National Center for Advancing Translational Sciences (NCATS), 2013)
# “And” between values parts separate entries of the source, which are not always exact repeats. Equal entries are not always repeated. The campaign covered roughly 420,000 compounds. About 50,000 (12%) were called active. Inconclusive results, whose numbers are uncertain, are shown with a selection of clear calls. Calls follow the shape of the dose curve; as a rule, active = well fitted inhibition curve with a large enough effect; inconclusive = small, poorly fitted or top-dose-only effect; inactive = flat fitted curve, though single readings scatter. Where the call is inconclusive, the potency comes from a doubtful curve fit.
# Assay: qHTS for Inhibitors of human tyrosyl-DNA phosphodiesterase 1 (TDP1): qHTS in cells in presence of CPT; also: nearly all actives have a fitted effect of over 55% in size
# Conditions: chicken DT40 Tdp1-/-;hTDP1 cells + 20 nM CPT, ATP luminescence, 48 h; activity change, negative = growth inhibition: at 46.2 µM (top of the series) unless noted
# How it was run: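 Chicken DT40 Tdp1-/- cells complemented with human TDP1, 400 cells/well, exposed to compounds plus 20 nM camptothecin for at least 48 h at 37 C; viability read as ATP content by CellTiter-Glo luminescence.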
# % is scaled to controls: 0 for no effect and ±100 for the full control effect; potency is read from the fitted curve at half-maximal effect; tags tell the direction and shape of the fitted curve.
Compound,"activity change, negative = growth inhibition",Potency
CCOc1ccc(NC(=O)CCn2cnc3onc(-c4ccc(F)cc4)c3c2=O)cc1,inactive: -17.6%,
CC(C)(C)C1CCN2CCC[C@](c3ccccc3)(C1)C2OCCCO (stereo not given in full),,"inconclusive: 20.6 µM [inhibitor, single point]"
c1coc(-c2ccnc3nc(-n4cccc4)nn23)c1,inactive: -24%,
COc1ccc(C2Nc3ccccc3C(=O)N2c2ccccc2)cc1Cn1cc([N+](=O)[O-])cn1 (stereo not given),,"inconclusive: 25.9 µM [inhibitor, single point]"
COc1ccc2[nH]cc(CCNc3cc(-c4ccccc4C)ncn3)c2c1,,active: 9.2 µM
CC(=O)c1ccc(NS(=O)(=O)c2ccc(N/C=C/C(=O)c3ccc(F)cc3)cc2)cc1,,"inconclusive: 29.1 µM [inhibitor, single point]"
COc1ccc(-c2cc(C(=O)N(C)Cc3nc4ccccc4c(=O)[nH]3)c3ccccc3n2)cc1OC,,"inconclusive: 29.1 µM [inhibitor, single point]"
CC(C)Cn1cnc2c(c1=N)C(c1ccccc1)C1=C(CC(C)(C)CC1=O)O2 (stereo not given),,"inconclusive: 16.4 µM [inhibitor, partial curve]"
Cc1ccc(NS(=O)(=O)c2c(C(=O)N3CCC(C)CC3)c(C)n(C)c2C)cc1Cl,,"inconclusive: 20.6 µM [inhibitor, single point]"
COc1cccc(CNCC(=O)N2C(C)CCCC2C)c1 (stereo not given),,"inconclusive: 10.3 µM [inhibitor, partial curve, poor fit]"
O=C1OCC(c2ccccc2)=C1c1ccccc1,inactive: -1.36%,
COc1cc(/C=C(\C#N)C(=O)N2CCOCC2)cc(Br)c1O,,"inconclusive: 16.4 µM [inhibitor, single point]"
CCOC(=O)c1c(S(=O)(=O)N2CCCC(C(=O)N3CCN(c4cccc(C)c4C)CC3)C2)c(C)n(C)c1C (stereo not given),,active: 7.31 µM
Cn1cc(-c2coc3c(C(=O)NCc4cccc(Cl)c4)cccc23)cn1,,"inconclusive: 18.4 µM [inhibitor, single point]"
CNc1ccc(Br)cc(C(=O)/C=C/c2ccc3c(c2)OCO3)c1=O,,active: 18.4 µM
Cn1c(-c2ccc(CN3CCCCC3)o2)nc2ccccc21,inactive: -10.7%,
O=C(CSc1nc2c(oc3ccccc32)c(=O)n1-c1ccccc1F)Nc1ccccc1,,"inconclusive: 29.1 µM [inhibitor, single point]"
Cc1oc(C(C)(C)C)cc1C(=O)N1CCN(C(c2ccccc2)c2ccccc2)CC1,,"inconclusive: 29.1 µM [inhibitor, single point]"
O=c1c2ccccc2nc2ccc(NCc3ccco3)nn12,,"inconclusive: 29.1 µM [inhibitor, single point]"
CCOc1cc(NC(=S)NCCCOC)c(OCC)cc1NC(=O)c1ccco1,inactive: -14.1%,
COc1cc(NS(=O)(=O)c2ccc(N/C=C\C(=O)c3ccc(C)cc3)cc2)nc(OC)n1,,active: 11.6 µM
CCN(CC(=O)NCc1ccc(Cl)cc1)C(=O)C(C)Sc1ccccc1 (stereo not given),,"inconclusive: 18.4 µM [inhibitor, single point]"
COc1ccc(-n2c(SCc3ccc([N+](=O)[O-])cc3)nnc2-c2ccccc2)cc1,,"inconclusive: 18.4 µM [inhibitor, partial curve, poor fit]"
CC(=O)C[C@@H](O)CC(=O)[C@@H]1OC(=O)CCCCCc2ccccc21,inactive: 15.1%,

Compound,"activity change, negative = growth inhibition",Potency
Cn1c(=O)[nH]c(=O)c2c1nc(Br)n2CCC(=O)c1ccccc1,,"inconclusive: 20.6 µM [inhibitor, single point]"
CCC1CCCCN1Cc1ccc(CNC(=O)CCc2nnc3ccc(N4CCCCC4)nn23)o1 (stereo not given),inactive: 6%,
O=C(N/N=C/c1ccccn1)c1cc(-c2ccc(Br)cc2)nc2ccccc12,,active: 2.59 µM
O=C1C=CC(O)(c2cc(=O)c3c(O)cc(O)cc3o2)C=C1,,active: 0.366 µM
COc1cccc(NC(=O)CSc2nc3ccccc3c(=O)n2CCCC(=O)N2CCCC2)c1,inactive: -19.6%,
Cn1c(=O)c2cc(S(=O)(=O)NCCC(=O)NCCC3=CCCCC3)ccc2n(C)c1=O,,"inconclusive: 11.6 µM [inhibitor, partial curve]"
Cc1cc(C)c(NC(=S)N(CCN(C)C)Cc2cccs2)c(C)c1,,"inconclusive: 23.1 µM [inhibitor, single point]"
CCCCN([C@H](CO)C(C)C)S(=O)(=O)c1ccccc1Br,,"inconclusive: 18.4 µM [inhibitor, single point]"
COc1ccc(C(C(=O)NC2CCCCC2)N(C(=O)CCl)c2cccc(Cl)c2)cc1 (stereo not given),,active: 2.31 µM
COc1ccc(CC(=O)Nc2ccc3c(c2)CCC3)cc1OC,,"inconclusive: 29.1 µM [inhibitor, partial curve, poor fit]"
CN(CC(=O)Nc1ccc(Cl)c(Cl)c1)C(=O)C12CC3CC(CC(C3)C1)C2,,"inconclusive: 18.4 µM [inhibitor, single point]"
Cc1ccc(C(=O)C[n+]2ccc3ccccc3c2)cc1,,"inconclusive: 25.9 µM [inhibitor, single point]"
Cc1ccc(Nc2c3c(nc4nncn24)CCC3)cc1C,,"inconclusive: 29.1 µM [inhibitor, partial curve, poor fit]"
C/C(=N\NC(=O)COc1ccc(C(C)(C)C)cc1)c1cc2ccccc2o1,inactive: -0.424%,
Cc1c(C(=O)NCc2ccccc2C(F)(F)F)sc(=O)n1Cc1ccc2ccccc2c1,,"inconclusive: 29.1 µM [inhibitor, single point]"
O=[N+]([O-])c1cc(-c2ccc(C(=S)N3CCOCC3)o2)ccc1Cl,,"inconclusive: 29.1 µM [inhibitor, single point]"
O=C(C[n+]1ccc(Cc2ccccc2)cc1)Nc1ccc([N+](=O)[O-])cc1Cl,,"inconclusive: 29.1 µM [inhibitor, single point]"
CCOc1cc(S(=O)(=O)n2ccnc2C(C)C)ccc1Cl,inactive: -26%,
Cc1ccc(-n2c(O)c(C=Nc3ccccc3-c3n[nH]c(=S)[nH]c3=O)c3ccccc3c2=O)c(C)c1,inconclusive: -33.1% [inhibitor],
CCc1ccccc1NC(=O)Nc1ccon1,inactive: -2.4%,
CC(C)n1c(C(O)c2ccc3c(c2)OCO3)nc2ccccc21 (stereo not given),inactive: -28.9%,
O=C(NCCc1ccccc1)/C(=C/c1ccco1)c1ccccc1,,active: 25.9 µM
Nn1c(SCC(=O)Nc2ccccc2Br)nnc1-c1ccco1,inactive: 3.47%,
Clc1ccc(-n2c(SC/C=C/c3ccccc3)nnc2-c2cccnc2)cc1,,active: 23.1 µM

Compound,"activity change, negative = growth inhibition",Potency
O=C(NCCS(=O)(=O)N1CCCCC1)c1ccc2c(c1)OCO2,inactive: -2.04%,
CC(=O)/C(C#N)=C1\NC(=O)C(Cc2ccc(F)cc2)S1 (stereo not given),,"inconclusive: 0.731 µM [inhibitor, full curve, poor fit]"
CSCCC(C(=O)NCc1ccccc1)n1c(Cc2cc(F)cc(F)c2)nc2ccccc21 (stereo not given),,"inconclusive: 20.6 µM [inhibitor, single point]"
CCOC(=O)c1c(C)oc2nc(C)nc(NCc3ccc(Cl)cc3)c12,,"inconclusive: 14.6 µM [inhibitor, partial curve]"
O=C(CCN1CCN(c2ccccc2)CC1)N/N=C/c1ccc(O)c(O)c1O,,"inconclusive: 29.1 µM [inhibitor, single point]"
COc1ccc(F)cc1CSc1nnnn1-c1ccc(O)cc1,inactive: -19.1%,
O=C(Nc1ccc(F)cc1)c1c(Cl)nc2ccccn12,inactive: 4.07%,
NS(=O)(=O)c1ccc(CCNCc2cc(Cl)ccc2OCc2ccccc2)cc1,,"inconclusive: 29.1 µM [inhibitor, single point]"
Cc1ccc2oc(C(=O)N3CCN(c4cccc(C)n4)CC3)c(C)c2c1,,"inconclusive: 29.1 µM [inhibitor, single point]"
CC(=O)Nc1ccc(C(=O)OCC(=O)Nc2ccc([N+](=O)[O-])cc2C(F)(F)F)cc1,,"inconclusive: 23.1 µM [inhibitor, partial curve, poor fit]"
O=C(NC1CCCCC1)C(c1cccs1)N(C(=O)Cc1c[nH]c2ccccc12)c1ccc(F)cc1 (stereo not given),,"inconclusive: 29.1 µM [inhibitor, single point]"
CCn1cc(C(=O)N2CCN(c3ccccc3F)CC2)c(=O)c2cc(S(=O)(=O)N(C)C3CCCCC3)ccc21,inactive: -7.24%,
Cc1ccc2oc(-c3cccc(NC(=O)c4ccc(Br)o4)c3C)nc2c1,,"inconclusive: 13 µM [inhibitor, partial curve]"
CC(C)CNC(=O)CN(c1ccccc1)S(=O)(=O)c1ccccc1[N+](=O)[O-],inactive: 6.52%,
O=[N+]([O-])c1cc(C(F)(F)F)cc([N+](=O)[O-])c1N1CCN(S(=O)(=O)c2ccccc2)CC1,,"inconclusive: 25.9 µM [inhibitor, single point]"
Nc1c(C(=O)c2ccc(Cl)cc2)sc2nsc(SCCN3CCOCC3)c12,,active: 4.61 µM
CCOC(=O)C1(Cc2cccc(F)c2)CCN(Cc2cnc(C)s2)CC1,,active: 25.9 µM
O=C(Nn1cnnc1)C(Sc1ccccc1)c1ccccc1 (stereo not given),inactive: -4.92%,
NC(=O)C1CCCN(C(=O)CCC(=O)c2cccs2)C1 (stereo not given),inactive: 12.1%,
COc1cc(NC(=O)c2ccccc2)ccc1NC(=O)c1cc2ccccc2o1,,"inactive and inconclusive: 2.06 µM [inhibitor, full curve, poor fit]"
Cc1ccc(-n2c(C)cc(/C=N/Nc3ccc([N+](=O)[O-])cn3)c2C)c(C)c1,,"inconclusive: 18.4 µM [inhibitor, single point]"
COc1ccc(NC(=O)C(OC(=O)c2cnc(C)cn2)c2ccccc2)cc1Cl (stereo not given),,"inconclusive: 20.6 µM [inhibitor, partial curve]"
